106 compounds from PubChem BioAssay AID488969 (Vanderbilt High Throughput Screening Facility, 2010) can be followed below.

Whole data set: some 110,000 compounds, median “z-score” near -0.1, cut for the highest 2% near 2. This is one part of the list.

This assay deals with Metabotropic glutamate receptor 8 (Rattus norvegicus) (UniProt P70579). The assay is described as follows: rat mGluR8 modulators via GIRK flux, primary screen, cell-based, thallium flux, HTS (AID 488969). Particulars: HEK293 rat mGluR8, GIRK (G protein-gated inwardly rectifying potassium channel) thallium flux, FluoZin2; at 10 µM; stronger effect = higher value; submaximal glutamate (EC20) added with thallium.
Chain of UniProt P70579 (P70579 whole entry, looked up): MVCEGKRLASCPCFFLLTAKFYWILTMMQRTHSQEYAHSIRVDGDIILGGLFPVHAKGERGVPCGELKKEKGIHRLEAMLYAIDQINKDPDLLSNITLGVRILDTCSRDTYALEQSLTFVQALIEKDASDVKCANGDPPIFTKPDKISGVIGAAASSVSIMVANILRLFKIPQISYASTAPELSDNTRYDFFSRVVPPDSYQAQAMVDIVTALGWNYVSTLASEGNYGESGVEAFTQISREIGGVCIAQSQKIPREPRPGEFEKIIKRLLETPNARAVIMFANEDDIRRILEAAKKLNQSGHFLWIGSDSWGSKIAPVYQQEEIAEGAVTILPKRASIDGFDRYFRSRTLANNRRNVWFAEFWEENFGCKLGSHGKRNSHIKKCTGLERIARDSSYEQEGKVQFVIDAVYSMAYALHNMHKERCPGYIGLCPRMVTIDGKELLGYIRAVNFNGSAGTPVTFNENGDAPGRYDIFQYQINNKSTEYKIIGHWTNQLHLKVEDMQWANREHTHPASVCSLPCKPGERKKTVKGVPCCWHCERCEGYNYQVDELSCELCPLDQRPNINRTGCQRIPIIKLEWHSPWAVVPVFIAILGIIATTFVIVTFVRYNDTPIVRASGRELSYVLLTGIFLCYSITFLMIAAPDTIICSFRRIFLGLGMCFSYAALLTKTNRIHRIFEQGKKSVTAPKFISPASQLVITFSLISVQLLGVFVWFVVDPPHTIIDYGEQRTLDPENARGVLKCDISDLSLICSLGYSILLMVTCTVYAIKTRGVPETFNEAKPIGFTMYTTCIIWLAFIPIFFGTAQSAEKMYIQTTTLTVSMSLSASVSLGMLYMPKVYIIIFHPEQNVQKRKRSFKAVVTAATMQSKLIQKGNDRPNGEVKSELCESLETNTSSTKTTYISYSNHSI
Regarding `O=C(COc1ccc(S(=O)(=O)NCCc2ccccc2)cc1)N1CCCC1`, the z-score came out at 0.83. `Cc1nc(SCC(=O)c2c[nH]c3ccccc23)n[nH]1` had a z-score of 0.483. As to `Cc1cccc(C2=NC(C(F)(F)F)(C(F)(F)F)c3c(n(-c4ccc(F)cc4)c(=O)[nH]c3=O)N2)c1`, the z-score was -0.097.

As to `O=C(Cc1cccc2ccccc12)Nc1ccc(-c2cc3ccccc3oc2=O)cc1`, the z-score was -0.0246. `CC(=O)Nc1ccc(NS(=O)(=O)c2cccc3ccccc23)cc1`: the z-score was -0.54. `Brc1ccc2ncnc(NCc3ccccc3)c2c1`: the z-score is -0.496.

Take `Cc1cc(C)c(C(=O)c2ccc(C(=O)NC(C)(C)C)cc2)c(C)c1`: the z-score was -0.0823.

Compound `CCCCS(=O)CC(COCc1ccccc1)OC(=O)CSc1nc(C)cc(C)n1` (stereo unspecified) returned a z-score of -0.998. The compound `CCS(=O)(=O)NCCc1cc2c(OC)ccc(OC)c2[nH]c1=O` came in with a z-score of -0.412. Then `O=C(NCCCn1ccnc1)C(F)(F)C(F)(F)C(=O)NCCCn1ccnc1`, with 0.569. Regarding `Cc1nc(C)c(C(=O)NNS(=O)(=O)c2ccc3ccccc3c2)s1`, the z-score is -0.00313. Compound `CC(=O)Nc1ccc(-c2nc3c(C)cccc3[nH]2)cc1` gave a z-score of -0.411.

In turn, `O=C1Nc2cc(C(=O)N3CCOCC3)ccc2SC1N1CCOCC1` (stereo unspecified) came in with a z-score of 0.448.

Turning to `CC(C)COC(=O)n1c(=O)oc2cc(S(=O)(=O)N3CCCCC3)ccc21`, the z-score is -0.55.

`CCn1c2ccccc2c2cc(/C=N/NC(=O)c3cccc(C)c3)ccc21` registered a z-score of -0.0891. Compound `Cc1ccc(CNC(=O)c2ccc3c(=O)n(CCCN4CCCC4=O)c(=S)[nH]c3c2)cc1` came in with a z-score of -0.167. Compound `O=C(CSc1ccc(Cl)cc1)Nc1ccc(NC(=O)c2ccco2)cc1` showed a z-score of -0.0431. To `CCn1nc(C)c(/C=N/NC(=O)Cn2nc(C)cc2C)c1C` belongs -0.232.

In turn, `CCSc1nnc(-c2ccccc2NC(=O)CC)c(=O)[nH]1` yielded a z-score of -2.6. The compound `O=C(NCCc1cn2ccccc2n1)c1ccccc1F` gave a z-score of 0.0227. Regarding `CCC(=Nc1ccc(N)cc1)C1=C(O)C(C(=O)OC)C(C)(C)CC1=O` (stereo unspecified), the z-score was -0.114. Take `O=C(OCc1cc2ccccc2[nH]c1=O)c1ccco1`: the z-score is -0.253. `CC1=C(C(=O)Nc2ccc(C)cc2C)C(c2cccs2)NC(=S)N1` (stereo unspecified): the z-score was -0.388. Regarding `CCOC(=O)c1cc(-c2ccccc2)n(CCC(=O)N2CCN(c3ccccc3OC)CC2)c1C`, the z-score was -0.823.

Consider `CCOc1ccc(-n2c(C)c(C(C)=O)c(C(C)=O)c2C)cc1`, for which the z-score is 0.0135.

The compound `CCOC(=O)c1ccc(N=C2S/C(=C\c3cc(C)n(-c4cccnc4)c3C)C(=O)N2C)cc1` came in with a z-score of -0.0958.

Take `O=C1c2cccc(OCC(=O)N3CCCc4ccccc43)c2CCN1Cc1ccccc1`: the z-score was -0.397. In the case of `Cc1cc(N2CCC(C(N)=O)CC2)nc(-c2ccccc2)n1`, the z-score was -0.114.

The compound `Cc1ccc(C)c(NC(=S)N2CCCCCC2)c1` had a z-score of 0.0187. `Cc1cc(C)n(/N=C\c2c(O)ccc3ccccc23)c(=O)c1C(N)=O`: the z-score came to 0.178. On to `CC1=N/C(=C\c2ccc([N+](=O)[O-])cc2)C(=O)N1c1cc(Cl)ccc1C`, for which the z-score was 0.0291. To `c1ccc(C2Nc3ccccc3-c3nc4ccccc4n32)nc1` (stereo unspecified) belongs -0.506. Turning to `CCOC(=O)c1ccc(NS(=O)(=O)CC)cc1`, the z-score is -0.0325. For `N#Cc1c(-c2ccccc2)cc(C2CC2)nc1SCC(=O)O`, the z-score was -0.746. `O=C(CSc1nnc(-c2cccs2)n1-c1ccccc1)NCc1ccco1` registered a z-score of -0.271. As to `COc1cc(/C=N/NC(=O)COc2ccccc2[N+](=O)[O-])ccc1OC(=O)c1ccco1`, the z-score came out at 0.646. Compound `CCC(CCC(=O)Nc1ccc(S(N)(=O)=O)cc1)C(=O)O` (stereo unspecified) yielded a z-score of 0.735. Consider `Cc1ccc([N+](=O)[O-])c(OCCN2CCNCC2)c1`, for which the z-score was -0.292. For `COc1ccccc1Nc1nc(N)nc(CSC(=S)N2CCCCC2C)n1` (stereo unspecified), the z-score amounted to 0.0526. For the compound `O=C(NCCN1CCOCC1)Nc1ccc(Cl)cc1`, the z-score is 0.201. Turning to `CCSc1nnc(NC(=O)CSc2nnc(CNC(=O)c3ccc(OC)c(OC)c3)o2)s1`, the z-score is -0.363. Compound `COc1ccc(-n2c(Cc3cccs3)nnc2SCC(=O)Nc2ccc3c(c2)OCCO3)cc1` had a z-score of -0.305. The compound `CC(c1ccco1)N(C(=O)COc1ccccc1[N+](=O)[O-])c1ccccn1` (stereo unspecified) yielded a z-score of 0.0781. `Cc1ccc(C(=O)c2ccc(C(F)(F)F)cc2)cc1` returned a z-score of 0.0388. Consider `CC1=NN(c2ccccc2)C(=O)/C1=C\c1cc(C)n(-c2ccccc2)c1C`, for which the z-score is -0.234. Regarding `CCOC(=O)N1CCN(C(=O)c2cnn3c(C(F)F)cc(-c4ccc(C)cc4)nc23)CC1`, the z-score was -2.42. To `CCOc1cc(/C=N/NC(N)=S)cc(Br)c1OCc1ccccc1C` belongs -0.205; to `CCOC(=O)c1cnn(-c2nc(-c3ccc(C)cc3)cs2)c1C(F)(F)F`, -0.287; to `O=S(=O)(NC1CCCC1)c1ccc(S(=O)(=O)N2CCN(c3ccccc3)CC2)cc1`, 0.438.

As to `CCN(CC)C(=O)C1=C(C)NC(=O)NC1c1ccccc1F` (stereo unspecified), the z-score came to 0.355. Then `COc1ccc(OC)c(C2C3=C(CC(C)(C)CC3=O)Nc3nnnn32)c1` (stereo unspecified), with -0.0729; and `COc1ccc(CCN2C(=O)C3C4CC(C5C(C(=O)NN)=NOC45)C3C2=O)cc1OC` (stereo unspecified), with 0.152; and `Cc1cccnc1NC(=O)C1CCN(S(=O)(=O)c2ccc3c(c2)CCC(=O)N3)CC1`, with -0.244. `CCOc1cc(Br)ccc1S(=O)(=O)N1CC(C)OC(C)C1` (stereo unspecified): the z-score was 0.199. The compound `NC(=O)C(c1ccc(Sc2ccccc2)nn1)c1ccc(Cl)cc1Cl` (stereo unspecified) showed a z-score of 0.0127.

The compound `O=C(C1CCN(S(=O)(=O)N2CCOCC2)CC1)N1CCN(Cc2ccc3c(c2)OCO3)CC1` returned a z-score of 0.59. In the case of `CNC(=O)CSc1nc2nn(-c3ccccc3)c(=O)c-2c2n1CCCCC2`, the z-score was -0.295. In the case of `OC(Cc1cccnc1)(Cc1cccnc1)c1cc2ccccc2[nH]1`, the z-score was -0.452. With `CC(C)OCC(O)CS(=O)(=O)Cc1ccccc1` (stereo unspecified), the z-score stood at 0.622. To `O=C(NC(=S)NC1CCS(=O)(=O)C1)c1cccs1` (stereo unspecified) belongs -0.0564; to `O=C(c1ccc(F)cc1)N1CCCCC(Sc2nnc3ccccn23)C1=O` (stereo unspecified), 0.0592; to `O=C(NCc1ccco1)c1ccccc1NS(=O)(=O)c1cccs1`, -0.617.

`COc1ccc(N(C(=O)c2ccco2)S(=O)(=O)c2cc(OC)ccc2OC)cc1` came in with a z-score of -0.34.

In turn, `CCC(C)NS(=O)(=O)c1ccc(NC(=O)C(Sc2ccccc2)c2ccccc2)cc1` (stereo unspecified) returned a z-score of 0.666. On to `Cn1c(SCC(=O)Nc2nccs2)nnc1-c1ccncc1`, for which the z-score was -0.256.

`CC(=O)c1ccc(N=Cc2c(O)n(-c3cc(Cl)ccc3N3CCOCC3)c(=O)c3ccccc23)cc1`: the z-score is -0.64. Then `CCN(Cc1ccccc1)C(=O)COc1cc(=O)n(CC)c2ccccc12`, with -0.186; and `O=C(c1ccc(N2CCCC2=O)cc1)N1CCCCCC1`, with -0.268; and `Cc1ccc2nc(SCC(=O)NCc3cccs3)c(C#N)cc2c1`, with -0.0306.

`NC(=O)c1c(NC(=O)COC(=O)CSc2nnc(-c3ccc(Cl)cc3)o2)sc2c1CCC2` had a z-score of -0.775. `O=C(Cc1ccccc1)NCCc1cccc(Cl)c1` had a z-score of 0.142. In the case of `CCn1c(=O)c(C(=O)NNS(=O)(=O)c2ccc(C)cc2)c(O)c2ccccc21`, the z-score is -0.0351.

As for `O=C(Nc1ncc(Cc2cc(Cl)ccc2Cl)s1)c1ccc([N+](=O)[O-])cc1`, the z-score was -0.0183. With `CC(C)c1ccc(S(=O)(=O)N2CCN(C(=O)c3cccc(F)c3)CC2)cc1`, the z-score was found to be 0.325.

With `CC(C)c1ccc(C(=O)NCCCc2ccccc2)cc1`, the z-score is -0.477. In the case of `Cc1ccc2c(C(=O)CN3CCN(C4CCCCC4)CC3)c(C)[nH]c2c1`, the z-score was -0.0163. On to `Oc1c(Cl)cc(Cl)cc1C=Nc1ccc2c(c1)OCCO2`, for which the z-score is -1.21.

Compound `CCOC(=O)Cn1c(S(=O)(=O)Cc2ccccc2)nc2ccccc21` yielded a z-score of 0.335. For `CN(C)c1ccc(N/C=C/C(=O)c2ccccc2)cc1`, the z-score turned out to be 0.836. `COc1cc2c(cc1OC)C(C(=O)N1CCOCC1)C(c1cccs1)N(C)C2=O` (stereo unspecified): the z-score was -0.0306. `CC(C)C(NC(=O)c1cccs1)c1nnc(SCC(=O)Nc2nccs2)n1C` (stereo unspecified): the z-score is -2.33. To `C/C(=N\NC(=O)C1CCCN(S(=O)(=O)c2ccccc2)C1)c1ccccn1` (stereo unspecified) belongs -0.113; to `CN=C(Nc1ccc(C(=O)OC)cc1)SC1CC(=O)N(c2ccccc2F)C1=O` (stereo unspecified), -0.129; to `CC(=O)Nc1cc(-c2nn(CC(=O)N3CCCCC3)c(=O)c3ccccc23)ccc1N1CCOCC1`, -0.158. Compound `Cc1ccc(S(=O)(=O)N2CCCC(NC(=O)N3CCN(c4ccccc4)CC3)C2)cc1` (stereo unspecified) yielded a z-score of 0.0203. On to `COC(=O)c1ccccc1NC(=O)c1ccc(Cn2cc(Cl)cn2)o1`, for which the z-score turned out to be 0.872. Compound `COc1ccc(C)cc1NC(=O)C1CCCN(S(=O)(=O)c2cnc[nH]2)C1` (stereo unspecified) had a z-score of 0.651.

As to `CCc1ccc(-c2nc(C(N)=O)c3[nH]c(=O)n(-c4ccccc4OC)c3n2)cc1`, the z-score was -0.23. `Cc1cc(C)c(S(=O)(=O)/N=C2/C=C(Sc3ncn[nH]3)C(=O)c3ccccc32)cc1C` returned a z-score of -0.0789. Then `CCC(C)C(NC(N)=O)C(=O)Nc1ccc(C)c(Cl)c1` (stereo unspecified), with -0.12; and `Cc1ccc(-c2nnc3n2CCCCC3)cc1`, with 0.0634; and `Cc1ccc(C(=O)ON=C2CCN(S(=O)(=O)c3ccccc3)CC2)cc1`, with 0.00667. The compound `O=C(CCS(=O)(=O)Cc1ccccc1)Nc1nc2c(s1)CCCC2` came in with a z-score of -0.123. With `CCOC(=O)c1nn(-c2ccc(Cl)cc2)c2nc(CC)c(C#N)c(=O)n12`, the z-score is -0.735.

`CC(C)CC(=O)N1CCN(c2ccc([N+](=O)[O-])c(NCc3ccccc3)c2)CC1` registered a z-score of -0.62.

Consider `NCCCN1CCOCC1`, for which the z-score is -0.0276. Then `COc1cccc(C(=O)Nc2ccc(NC(C)=O)cn2)c1`, with 0.157. For `COc1cccc(COc2ccccc2C2Nc3ccc(Br)cc3C(=O)N2NC(=O)c2ccncc2)c1` (stereo unspecified), the z-score was -0.52.

`C/C(=N\NS(=O)(=O)c1ccc(C)cc1)c1ccc(C)s1` displayed a z-score of -0.125. For `CCC(c1nnnn1C(C)(C)CC)N(CCCN1CCOCC1)Cc1cc2cccc(C)c2[nH]c1=O` (stereo unspecified), the z-score is 0.192.

With `CCCC(CCC)C(=O)NNc1cc(=O)c2c(=O)n(C)c(=O)n(C)c2[nH]1`, the z-score is -0.704. Compound `Cn1cc([N+](=O)[O-])c(C(=O)N/N=C/c2ccccc2)n1` returned a z-score of -0.138. `CCOC(Cn1c(-c2ccc(OC)cc2)nc2ccccc21)OCC`: the z-score is -0.127. Take `O=S(=O)(c1ccc(Cl)s1)N1CCc2ccccc2C1`: the z-score is -0.1. `CCOc1cc2[nH]c(=O)n(CCC(=O)NCCc3ccc(OC)c(OC)c3)c(=O)c2cc1OCC` registered a z-score of -1.28. In turn, `CCN(CC)S(=O)(=O)c1cccc(S(=O)(=O)N2CCCCC2)c1` gave a z-score of -0.121.
